Laboratory results: the supplement of paper PMC8728848
Some of the results follow.

Columns and labels:
Assay in all cases: glycan array binding signal (z-score within array); higher = stronger binding
Conditions in all cases: glycan notation: IUPAC condensed, linker removed; mutation: D325A
[1] = target: Fuc(a1-3)[GalNAc(b1-4)]GlcNAc
Method in brief: (§1)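 Glycan array data came from 3228 arrays in the Consortium for Functional Glycomics database, and only arrays with an available protein sequence were kept. Glycan names were put into IUPAC-condensed notation, and columns mapping to the same glycan were averaged. The binding signal is a within-array Z-score, averaged across arrays of one protein sequence run at different concentrations or buffers and across linkers. A negative Z-score can be read as non-binding.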

Fuc(a1-4)GlcNAc = target: Fuc(a1-4)GlcNAc
Method in brief: as §1

Fuc(b1-3)GlcNAc = target: Fuc(b1-3)GlcNAc
Method in brief: as §1

Gal(a1-2)Gal = target: Gal(a1-2)Gal
Method in brief: as §1

Gal(a1-3)Gal = target: Gal(a1-3)Gal
Method in brief: as §1

Gal(a1-3)Gal(b1-3)GlcNAc = target: Gal(a1-3)Gal(b1-3)GlcNAc
Method in brief: as §1

Gal(a1-3)Gal(b1-4)Glc = target: Gal(a1-3)Gal(b1-4)Glc
Method in brief: as §1

Gal(a1-3)Gal(b1-4)GlcNAc = target: Gal(a1-3)Gal(b1-4)GlcNAc
Method in brief: as §1

[2] = target: Gal(a1-3)Gal(b1-4)[Fuc(a1-3)]GlcNAc
Method in brief: as §1

Gal(a1-3)GalNAc = target: Gal(a1-3)GalNAc
Method in brief: as §1

[3] = target: Gal(a1-3)[Gal(a1-4)]Gal(b1-4)GlcNAc
Method in brief: as §1

Gal(a1-4)Gal(b1-4)Glc = target: Gal(a1-4)Gal(b1-4)Glc
Method in brief: as §1

Gal(a1-4)Gal(b1-4)GlcNAc = target: Gal(a1-4)Gal(b1-4)GlcNAc
Method in brief: as §1

Gal(a1-4)GlcNAc = target: Gal(a1-4)GlcNAc
Method in brief: as §1

Gal(a1-6)Glc = target: Gal(a1-6)Glc
Method in brief: as §1

Gal(b1-2)Gal = target: Gal(b1-2)Gal
Method in brief: as §1

Gal(b1-3)Gal = target: Gal(b1-3)Gal
Method in brief: as §1

Gal(b1-3)Gal(b1-4)GlcNAc = target: Gal(b1-3)Gal(b1-4)GlcNAc
Method in brief: as §1

Gal(b1-3)GalNAc = target: Gal(b1-3)GalNAc
Method in brief: as §1

[4] = target: Gal(b1-3)GalNAc(b1-3)Gal(a1-4)Gal(b1-4)Glc
Method in brief: as §1

[5] = target: Gal(b1-3)GalNAc(b1-4)Gal(b1-4)Glc
Method in brief: as §1

[6] = target: Gal(b1-3)GalNAc(b1-4)[Neu5Ac(a2-3)]Gal(b1-4)Glc
Method in brief: as §1

Gal(b1-3)GlcNAc = target: Gal(b1-3)GlcNAc
Method in brief: as §1

[7] = target: Gal(b1-3)GlcNAc(b1-2)Man(a1-3)[Gal(b1-3)GlcNAc(b1-2)Man(a1-6)]Man(b1-4)GlcNAc(b1-4)GlcNAc
Method in brief: as §1

[8] = target: Gal(b1-3)GlcNAc(b1-3)Gal(b1-3)GlcNAc
Method in brief: as §1

[9] = target: Gal(b1-3)GlcNAc(b1-3)Gal(b1-4)Glc
Method in brief: as §1

[10] = target: Gal(b1-3)GlcNAc(b1-3)Gal(b1-4)GlcNAc
Method in brief: as §1

[11] = target: Gal(b1-3)[Fuc(a1-4)]GlcNAc
Method in brief: as §1

[12] = target: Gal(b1-3)[Fuc(a1-4)]GlcNAc(b1-3)Gal(b1-3)[Fuc(a1-4)]GlcNAc
Method in brief: as §1

[13] = target: Gal(b1-3)[Fuc(a1-4)]GlcNAc(b1-3)Gal(b1-4)GlcNAc
Method in brief: as §1

[14] = target: Gal(b1-3)[Fuc(a1-4)]GlcNAc(b1-3)Gal(b1-4)[Fuc(a1-3)]GlcNAc
Method in brief: as §1

[15] = target: Gal(b1-3)[GlcNAc(b1-6)]GalNAc
Method in brief: as §1

[16] = target: Gal(b1-3)[Neu5Ac(a2-6)]GalNAc
Method in brief: as §1

[17] = target: Gal(b1-3)[Neu5Ac(a2-6)]GlcNAc(b1-6)Gal(b1-4)Glc
Method in brief: as §1

[18] = target: Gal(b1-3)[Neu5Ac(b2-6)]GalNAc
Method in brief: as §1

[19] = target: Gal(b1-4)GalNAc(a1-3)[Fuc(a1-2)]Gal(b1-4)GlcNAc
Method in brief: as §1

[20] = target: Gal(b1-4)GalNAc(b1-3)[Fuc(a1-2)]Gal(b1-4)GlcNAc
Method in brief: as §1

Gal(b1-4)Glc = target: Gal(b1-4)Glc
Method in brief: as §1

Gal(b1-4)Glc6S = target: Gal(b1-4)Glc6S
Method in brief: as §1

Gal(b1-4)GlcNAc = target: Gal(b1-4)GlcNAc
Method in brief: as §1

[21] = target: Gal(b1-4)GlcNAc(a1-6)Gal(b1-4)GlcNAc
Method in brief: as §1

[22] = target: Gal(b1-4)GlcNAc(b1-2)Man(a1-3)[Gal(b1-4)GlcNAc(b1-2)Man(a1-6)]Man(b1-4)GlcNAc(b1-4)GlcNAc
Method in brief: as §1

[23] = target: Gal(b1-4)GlcNAc(b1-3)Gal(b1-3)GlcNAc
Method in brief: as §1

[24] = target: Gal(b1-4)GlcNAc(b1-3)Gal(b1-4)Glc
Method in brief: as §1

[25] = target: Gal(b1-4)GlcNAc(b1-3)Gal(b1-4)GlcNAc
Method in brief: as §1

B1: Surfactant Protein D (Human); Neck + Carbohydrate Recognition Domain (NCRD) (Homo sapiens) (protein)
chain: MLLFLLSALVLLTQPLGYLEAEMKTYSHRTMPSACTLVMCSSVESGLPGRDRDGREGPRGEKGDPGLPGAAGQAGMPGQAGPVGPKGDNGSVGEPGPKGDTGPSGPPGPPGVPGPAGREGALGKQGNIGPQGKPGPKGEAGPKGEVGAPGMQGSAGARGLAGPKGERGVPGERGVPGNTGAAGSAGAMGPQGSPGARGPPGLKGDKGIPGDKGAKGESGLPDVASLRQQVEALQGQVQHLQAAFSQYKKVELFPNGQSVGEKIFKTAQFVKPFTEAQLLCTQAGGQLASPRSAAENAALQQLVVAKNEAAFLSMTDSKTEGKFTYPTGESLVYSNWAPGEPNDAGGSEDCVEIFTNGKWNDRACGEKRLVVCEF
[1]
  glycan array binding signal (z-score): -0.274
Fuc(a1-4)GlcNAc
  glycan array binding signal (z-score): -0.272
Fuc(b1-3)GlcNAc
  glycan array binding signal (z-score): 0.579
Gal(a1-2)Gal
  glycan array binding signal (z-score): -0.274
Gal(a1-3)Gal
  glycan array binding signal (z-score): -0.264
Gal(a1-3)Gal(b1-3)GlcNAc
  glycan array binding signal (z-score): -0.271
Gal(a1-3)Gal(b1-4)Glc
  glycan array binding signal (z-score): -0.273
Gal(a1-3)Gal(b1-4)GlcNAc
  glycan array binding signal (z-score): -0.232
[2]
  glycan array binding signal (z-score): -0.267
Gal(a1-3)GalNAc
  glycan array binding signal (z-score): -0.164
[3]
  glycan array binding signal (z-score): -0.269
Gal(a1-4)Gal(b1-4)Glc
  glycan array binding signal (z-score): -0.267
Gal(a1-4)Gal(b1-4)GlcNAc
  glycan array binding signal (z-score): -0.262
Gal(a1-4)GlcNAc
  glycan array binding signal (z-score): -0.265
Gal(a1-6)Glc
  glycan array binding signal (z-score): -0.236
Gal(b1-2)Gal
  glycan array binding signal (z-score): -0.262
Gal(b1-3)Gal
  glycan array binding signal (z-score): -0.273
Gal(b1-3)Gal(b1-4)GlcNAc
  glycan array binding signal (z-score): -0.267
Gal(b1-3)GalNAc
  glycan array binding signal (z-score): -0.266
[4]
  glycan array binding signal (z-score): -0.27
[5]
  glycan array binding signal (z-score): -0.253
[6]
  glycan array binding signal (z-score): -0.264
Gal(b1-3)GlcNAc
  glycan array binding signal (z-score): -0.258
[7]
  glycan array binding signal (z-score): -0.276
[8]
  glycan array binding signal (z-score): -0.261
[9]
  glycan array binding signal (z-score): -0.267
[10]
  glycan array binding signal (z-score): -0.267
[11]
  glycan array binding signal (z-score): -0.254
[12]
  glycan array binding signal (z-score): -0.265
[13]
  glycan array binding signal (z-score): -0.269
[14]
  glycan array binding signal (z-score): -0.269
[15]
  glycan array binding signal (z-score): -0.274
[16]
  glycan array binding signal (z-score): -0.269
[17]
  glycan array binding signal (z-score): -0.265
[18]
  glycan array binding signal (z-score): -0.271
[19]
  glycan array binding signal (z-score): -0.247
[20]
  glycan array binding signal (z-score): -0.23
Gal(b1-4)Glc
  glycan array binding signal (z-score): -0.267
Gal(b1-4)Glc6S
  glycan array binding signal (z-score): -0.264
Gal(b1-4)GlcNAc
  glycan array binding signal (z-score): -0.262
[21]
  glycan array binding signal (z-score): -0.27
[22]
  glycan array binding signal (z-score): -0.273
[23]
  glycan array binding signal (z-score): -0.269
[24]
  glycan array binding signal (z-score): -0.27
[25]
  glycan array binding signal (z-score): -0.272
